Screen size: about 150,000 compounds; about 540 (0.36%) showed an effect of 50% or more. The list shows a part of the results.
Tested on: Plasmodium falciparum
Assay: Primary screen in NF54 nanoGlo assay, in single point, at 2uM, 72h; a lower Z score goes with more inhibition
Format: functional, Erythrocyte
Settings: timepoint 72 hour

Row | SMILES | % Inhibition [%] | Z score
1 | CC(C)C(OCC1CCCO1)C(=O)N1CC(C)C(N(C)C)C1 (stereo not given) | -3 | 0.38
2 | CCCN(C(=O)c1oc(C)nc1C)C1CC(OCC)C1(C)C (stereo not given) | -1 | 0.17
3 | COC[C@H]1CCN(C(=O)Nc2ccc(N3CCCC3)c(C)c2)C1 | -11 | 1.73
4 | CCc1nc(CC)n(Cc2ccccc2Cn2nc(CC)nc2CC)n1 | -14 | 1.29
5 | Cc1cccnc1NC(=O)C1CCCN(C(=O)CC2CCCO2)C1 (stereo not given) | -9 | 1.28
6 | CC(=O)N1CC[C@H](Nc2ccnc(Cc3ccccc3)n2)C1 | -10 | 1.62
7 | CN(C)S(=O)(=O)[C@@H]1CN(c2ncccc2C(=O)O)C[C@H]1C(F)(F)F | 1 | -0.07
8 | CC(C)(O)Cn1nc(-c2ccco2)nc1Cc1ccncc1 | 4 | -0.54
9 | O=C(CN1CCN(C(=O)Nc2ccc(F)cc2)CC1=O)NCc1ccccc1F | -2 | 0.3
10 | Cc1nc(C)c(CC(=O)Nc2nnc(C3CC3)s2)s1 | -6 | 0.72
11 | CC1CN(c2nnnn2[C@@H]2CCO[C@@H]2C)CC2(CCCC2)O1 (stereo not given in full) | -2 | 0.24
12 | CNc1snc(C)c1C(=O)Nc1cc(S(=O)(=O)N2CCCC2)ccc1O | -7 | 1.09
13 | CCN(Cc1ccco1)C(=O)[C@@H]1Cc2[nH]cnc2C2(CCCCC2)N1 | 0 | -0.05
14 | CNS(=O)(=O)c1cc(N)ccc1OC | 8 | -1.1
15 | O=C(Nc1nc2n(n1)CCCC2)NC1CCC1 | -3 | 0.6
16 | O=C1NC(=O)[C@@H]2CN(Cc3cc(Cl)cc4c3OCC4)C[C@H]12 | -4 | 0.57
17 | O=C(C1c2ccccc2Oc2ccccc21)N1CCOCC1 | 5 | -0.91
18 | Cc1ccc(-n2cc(C(=O)O)c(-c3ccccc3)n2)c(N)n1 | -5 | 0.96
19 | CNC(=O)COC(=O)c1c(F)cccc1Cl | -8 | 1.59
20 | O=C1OC2(CCN(S(=O)(=O)Cc3cc(F)ccc3F)CC2)c2ccccc21 | -19 | 2.49
21 | O=C(NCCc1cccc(F)c1F)N[C@H]1CC12CCOCC2 | -8 | 1.68
22 | CCCN1CCC[C@H](NC(=O)c2cc(OC)c(OC(C)C)cc2Cl)C1 | -11 | 2.17

Row | SMILES | % Inhibition [%] | Z score
23 | CN1CCCC[C@H](CNC(=O)c2cn(-c3cccc(Cl)c3F)nn2)C1 | -1 | 0.19
24 | CCCCNC(=O)N1C[C@H](OC)C[C@@H]1COc1cccnc1 | -5 | 1.16
25 | CC1CCC(C(N)=O)CN1C(=O)Nc1ccccc1N1CCN(C)CC1 (stereo not given) | -15 | 1.34
26 | CCc1ccc(S(=O)(=O)N(CCC(=O)N2CCNCC2)C2CCCC2)cc1 | -5 | 0.83
27 | CCn1nccc1S(=O)(=O)NCc1ccncc1OC[C@H]1CCOC1 | -2 | 0.3
28 | O=C(COCC(F)(F)F)NCc1ccccc1C(F)(F)F | 0 | -0.05
29 | COc1ncc(CN2CCc3[nH]cnc3[C@@H]2C(C)C)cn1 | -10 | 1.9
30 | Cn1cccc(C(=O)NCC2CCN(c3cnccn3)CC2)c1=O | -1 | 0.11
31 | O=C(Cc1ncc(Br)cc1Cl)NC1CCCCC1 | 4 | -0.55
32 | CCC(=O)N(CC(=O)Nc1nc(-c2ccccc2)cn1-c1ccc(C(C)C)cc1)CC(C)C | -18 | 1.72
33 | C[C@H]1c2cc(F)ccc2CCN1C(=O)NCCCC(=O)N(C)C | 6 | -0.71
34 | CC(C)[C@H](NC(=O)c1cccs1)c1nc2ccccc2n1C(C)C | -1 | 0.1
35 | CC(C)c1ncsc1C(=O)N1CCC(n2cc(Cl)cn2)CC1 | -5 | 0.73
36 | Cn1ccnc1CNC[C@@H](O)c1ccc(C(F)(F)F)cc1 | -6 | 1.25
37 | CC(C)c1cc(C(=O)N(CCNS(C)(=O)=O)C2CC2)nn1-c1ccccc1 | -6 | 0.81
38 | CN(CC1CCCC1)C(=O)c1cc2c([nH]c1=O)CCCC2=O | 32 | -3.21
39 | COc1cccc(CNS(=O)(=O)c2c[nH]c(-c3nnc(C)o3)c2)c1 | -10 | 1.92
40 | CC(C)(C)c1noc(CNC(=O)COC[C@H]2CCCO2)n1 | -3 | 0.63
41 | CCN(CC(=O)Nc1ccc(Cl)cc1F)Cc1noc(C2CCC2)n1 | 4 | -0.76
42 | O=C(Cn1nc(-c2ccccc2)ccc1=O)N1CC[C@@]2(O)CCCC[C@H]2C1 | -8 | 1.49
43 | CCOc1cccc(CCC(=O)N2CCCNC(=O)[C@@H]2CC)c1 | -5 | 0.81
44 | O=C(NC[C@H]1CCCO1)c1ccc(-c2cnc3ncnn3c2)cc1 | -21 | 1.83

Row | SMILES | % Inhibition [%] | Z score
45 | Cc1ncc(C(=O)N2CC(C)(C)Oc3cc(Br)ccc32)c(C)n1 | -11 | 1.02
46 | O=C(c1coc(CN(Cc2ccc3c(c2)OCO3)Cc2ccccc2F)n1)N1CCOCC1 | -1 | 0.2
47 | CC(=O)N[C@H]1CN(C(=O)c2ccc3nccnc3c2)C[C@@H]1c1ccc(C)cc1 | -4 | 0.72
48 | C[C@@H](CNC(=O)c1cc(C#N)c[nH]1)N(C)C(=O)c1cc(C#N)c[nH]1 | 5 | -0.62
49 | CCn1nccc1C(=O)N1CC(N(C)Cc2cccnc2)C1 | -9 | 1.66
50 | COC(=O)N1CC(C)(NC(=O)Nc2nn(C)cc2C)C1 | -9 | 1.61
51 | CCNC(=O)[C@@H](NC(=O)c1nnn(Cc2cc(C)no2)c1C)C(C)C | 4 | -0.48
52 | CC1=C(C)CC(C(=O)N2CCc3ccccc32)C(C(=O)O)C1 (stereo not given) | -9 | 1.81
53 | CCCc1nc(CN2CCc3cc(F)ccc3C2)no1 | -5 | 0.81
54 | CCn1ccc(C(=O)NCCn2c(C)cnc2COC)n1 | 4 | -0.44
55 | Cc1ccccc1CC1(N[C@@H](C)Cn2ccnc2C)CC1 | -10 | 1.79
56 | COCc1nc2cc(NC(=O)Cc3ccccc3)cc(C(=O)N3CCNC(=O)C3)c2n1C | -18 | 1.6
57 | Cc1cc(NCCNS(=O)(=O)CCCF)n(C)n1 | -4 | 0.4
58 | CS(=O)(=O)[C@@H]1CCCC[C@H]1NC(=O)c1ccc(Cl)c(F)c1 | -3 | 0.39
59 | CN(C)CCN1C(=O)N[C@@](Cc2cccc(F)c2)(C2CCN(C(=O)c3cccs3)CC2)C1=O | -15 | 2.14
60 | O=C(CNC1(c2cccc(Cl)c2)CC1)NCc1ccco1 | -8 | 1.02
61 | CCN1CCN(C2CN(S(=O)(=O)c3ccc(F)cc3C)C2)CC1 | -3 | 0.52
62 | CC(C)n1cc(NC(=O)N2CCC[C@H](c3cn[nH]c3)C2)cn1 | 2 | -0.23
63 | Cc1ncsc1CNCCCNc1ccccc1 | -14 | 2.11
64 | CCn1ncc(C(=O)N2C[C@@H]3CN(C(=O)C(C)C)C[C@]3(C(=O)N3CCCC3)C2)c1C | -2 | 0.29
65 | O=C(O)C[C@@H]1CCN(C2CCC2)C[C@@H]1Cc1nc2ccccc2[nH]1 | 3 | -0.44
66 | O=C(Cc1ccc2c(c1)OCO2)N(CCO)Cc1ccc(Cl)cc1 | -10 | 0.97

Row | SMILES | % Inhibition [%] | Z score
67 | CCCc1nnc(NC(=O)CCN2C(=O)CCC2=O)s1 | -2 | 0.33
68 | c1ccc(-c2nc(CN3C[C@@H]4NCCO[C@H]4C3)cs2)cc1 | -13 | 2.56
69 | Nc1ncncc1C(=O)OCc1noc(C2CC2)n1 | -9 | 1.44
70 | Cc1c(C(=O)NC[C@H]2COc3ccccc3O2)cnn1-c1nccc(-c2ccco2)n1 | -1 | 0.09
71 | CC(C)c1noc(OCCS(=O)(=O)N(C)C)n1 | -4 | 0.54
72 | CCN1CCC[C@@H]1CNC(=O)c1c(COC)n(CCc2cccc(Cl)c2)c(C)cc1=O | -9 | 1.18
73 | COc1cccc(O)c1S(=O)(=O)N1CC(NC2COC2)C1 | -4 | 0.65
74 | CC(C)NC(=NCc1ccsc1)N(C)C | -7 | 1.14
75 | CN(C(=O)OC(C)(C)C)[C@H]1CCCN(Cc2nnc(C3CC3)n2C)C1 | -5 | 0.51
76 | CC(=O)N1CCC(CNC(=O)c2cccc(OCCc3ccccc3)c2)CC1 | 12 | -1.68
77 | COc1ccc(NC(=O)c2ccc(N(S(=O)(=O)c3ccc(Cl)cc3F)S(=O)(=O)c3ccc(Cl)cc3F)cc2)cc1 | -10 | 1.36
78 | O=C(NCCN1CCc2c(Cl)cccc2C1)N[C@@H]1C=C[C@H](CO)C1 | -12 | 1.63
79 | Cc1cnc2c(cnn2Cc2nc([C@H]3CCO[C@@H]3C(C)(C)C)no2)c1 | -9 | 1.15
80 | CCN(CCN(C)C)C(=O)c1cccc(-c2ncccc2C)c1 | -6 | 0.81
81 | N#Cc1ccc(NC(=O)N2CCC([C@@H](O)CCc3ccccc3)CC2)c(F)c1 | -5 | 0.7
82 | Cn1cnnc1CCC(=O)N1CCN(Cc2ccc3c(c2)OCO3)CC1 | -9 | 0.89
83 | CN(Cc1nncn1C)C(=O)C[C@H]1CCCOC1 | -2 | 0.42
84 | Cc1ccc2c(c1)C(=O)N1CCCC3=NN(c4c(Cl)cc(Cl)cc4Cl)C(=N)C3=C1N2 | -9 | 0.92
85 | CS(=O)(=O)Cc1ccc(NCC[C@H]2CCCOC2)nc1 | -5 | 0.78

Source: ChEMBL document CHEMBL4888484, “Replenishing the malaria drug discovery pipeline: Screening and hit evaluation of the MMV Hit Generation Library 1 (HGL1) against asexual blood stage Plasmodium falciparum ,using a nano luciferase reporter read-out” (2022)
